Results on 53 compounds are retold here after ChEMBL document CHEMBL4888484, “Replenishing the malaria drug discovery pipeline: Screening and hit evaluation of the MMV Hit Generation Library 1 (HGL1) against asexual blood stage Plasmodium falciparum ,using a nano luciferase reporter read-out” (2022).

As a reminder, the % Inhibition is the change of the read-out against control, counted positive when it falls.

Hit rate of the full screen: of about 150,000 compounds, about 540 (0.36%) showed an effect of 50% or more. This is one part of the list.

The test system of the assay is Plasmodium falciparum. Nature of the assay: Primary screen in NF54 nanoGlo assay, in single point, at 2uM, 72h; a lower Z score goes with more inhibition. It is filed as functional, Erythrocyte. As to conditions: timepoint 72 hour.
Consider `CN(Cc1cccs1)C(=O)CN1CCc2cncnc2C1`, for which the “% Inhibition” value was -6% and the Z score was 0.95.

For the compound `COc1ccc(NC2CCCC(N3C(=O)c4ccccc4C3=O)C2)c(OC)c1` (stereo unspecified), the “% Inhibition” value was -9% and the Z score was 1.01.

Consider `CCC(C)[C@H](NC(=O)NCc1cccnc1)C(=O)OC` (stereo partly specified), for which the “% Inhibition” value is listed as -2% and the Z score was determined as 0.3.

`O=S(=O)(c1ccccc1Cl)N1CCc2oncc2C1`: the “% Inhibition” value was -11% and the Z score was determined as 1.79.

With `CC(=O)Nc1nc(-c2c(F)c(F)c(F)c(F)c2-c2ccccc2)cs1`, the “% Inhibition” value was -10% and the Z score was determined as 1.85.

Regarding `Cn1cnnc1C1CCN(CC(Cc2ccccc2)Cc2ccccc2)CC1`, the “% Inhibition” value is reported as -2% and the Z score is listed as 0.3.

Turning to `C=CCn1c(=O)c2sc(N(CC)CC)nc2n(CC(=O)Nc2cccc(F)c2)c1=O`, the “% Inhibition” value is given as -28% and the Z score is on record as 2.5.

On to `CN(CCC[C@H]1CCCO1)c1ccnc(C(F)(F)F)n1`, for which the “% Inhibition” value was found to be 1% and the Z score is reported as -0.13.

On to `Cc1cccc(-c2nocc2CCC(=O)NC2CC2)c1`, for which the “% Inhibition” value is given as -7% and the Z score is recorded as 0.91.

Regarding `CC[C@]1(O)CCCN(C(=O)c2ccncc2C)C1`, the “% Inhibition” value worked out at 2% and the Z score was -0.36.

`CCN(CC(F)(F)F)C(=O)Nc1ccc(F)c(F)c1`: the “% Inhibition” value is recorded as 0% and the Z score was -0.02.

Turning to `Cc1cc(OCC(N)=O)ccc1Br`, the “% Inhibition” value is -12% and the Z score was 1.61.

On to `CCOC(=O)C1=NN=C2C(=O)N(c3ccc(C)cc3)C(=O)[C@@H]12`, for which the “% Inhibition” value is reported as -14% and the Z score is 1.46.

Consider `Cc1cc(NC(=O)c2cn([C@H]3CC[C@@H](N)CC3)nn2)cc2sc(N)nc12`, for which the “% Inhibition” value amounted to 12% and the Z score is given as -2.46.

As to `Cc1ccccc1N1CCN(C(=O)CC[C@@H]2CN(Cc3ccccn3)CC[C@@H]2N2CCOCC2)CC1`, the “% Inhibition” value stood at 2% and the Z score is given as -0.27.

As for `O=C(c1cc(F)ccc1F)N1CCC[C@H](c2nc(C3CCOCC3)no2)C1`, the “% Inhibition” value is -3% and the Z score is given as 0.42.

Regarding `O=C(CCc1ccccc1)N1CCC[C@H](Oc2cccnn2)C1`, the “% Inhibition” value is -10% and the Z score stood at 1.18.

On to `O=C(NC1CC(C(F)(F)F)C1)c1cnnc2ccccc12` (stereo unspecified), for which the “% Inhibition” value is -5% and the Z score is on record as 0.56.

For the compound `Cc1cc(-c2noc(COc3cc(C)c(Cl)c(C)c3)n2)c2ccccc2n1`, the “% Inhibition” value is reported as -13% and the Z score is 1.96.

For the compound `CN1CC2(C[C@H]1c1noc(-c3ccccn3)n1)CN(C(=O)C1CCOCC1)C2`, the “% Inhibition” value is -10% and the Z score is 1.62.

Turning to `COCC1(S(=O)(=O)N2CC3CCCC3C2)CC1` (stereo unspecified), the “% Inhibition” value is on record as -16% and the Z score stood at 1.83.

As to `Cc1[nH]nc(CCC(=O)N[C@H](c2cnn(C)c2)C2CC(O)C2)c1C` (stereo partly specified), the “% Inhibition” value is reported as -15% and the Z score turned out to be 1.37.

For the compound `Cc1nc(NC(=O)CCNS(=O)(=O)c2ccc(Cl)cc2)sc1-c1ccccn1`, the “% Inhibition” value is given as 0% and the Z score is given as 0.02.

Turning to `Cc1nnc2c(=O)n(CC(=O)N3CCCCCC3)c3cccnc3n12`, the “% Inhibition” value is listed as -5% and the Z score turned out to be 0.7.

For `CCCCC(=O)Nc1cc(C(=O)O)ccc1N(CC)CCN(C)C`, the “% Inhibition” value is given as -8% and the Z score is 1.24.

`Cc1nnc(CCN2C[C@@](C)(c3ccccc3)CCC2=O)[nH]1`: the “% Inhibition” value stood at 31% and the Z score is recorded as -3.99.

Take `CC(C)(C)OC(=O)N[C@H](C(=O)O)C1CCCCC1`: the “% Inhibition” value was -8% and the Z score turned out to be 1.37.

Take `O=C(COC1CCCCC1)Nc1cccc2oc(C(F)(F)F)nc12`: the “% Inhibition” value turned out to be 25% and the Z score is given as -2.81.

Take `Cc1ccc(-c2c(C3c4ccccc4C(=O)N3CC3CCCO3)c3ccccc3n2C)cc1` (stereo unspecified): the “% Inhibition” value was 2% and the Z score was -0.21.

Take `COCCN(CC(=O)N(C)C)S(=O)(=O)C[C@H]1CCC[C@@H]1C`: the “% Inhibition” value is listed as -9% and the Z score was 1.58.

Consider `CN(C)c1ncc(Br)c2c1CN(C(=O)CO)CC2`, for which the “% Inhibition” value is listed as -6% and the Z score is listed as 0.68.

For the compound `CN(C)S(=O)(=O)c1ccc2c(c1)nnn2CCC(=O)N1CCN(c2ncccn2)CC1`, the “% Inhibition” value stood at 10% and the Z score was -1.85.

Consider `CCOc1ccc(C)cc1S(=O)(=O)N1CC=C[C@@H]1CC`, for which the “% Inhibition” value came to 2% and the Z score is given as -0.41.

In the case of `CCOC(=O)N1CCN(C(=O)c2cc(O)c(OCc3ccccc3)cn2)CC1`, the “% Inhibition” value is given as 0% and the Z score worked out at 0.06.

As to `Cc1ccc(CC(=O)Nc2ccc(N3C(=O)CCC3=O)c(C)c2)s1`, the “% Inhibition” value is listed as -7% and the Z score worked out at 0.94.

For the compound `CN(C[C@H](O)c1cccnc1)c1nccn2nnnc12`, the “% Inhibition” value is -4% and the Z score stood at 0.67.

In the case of `CC1(CC(=O)N2CCC[C@H]2C(N)=O)CCCCC1`, the “% Inhibition” value came out at 1% and the Z score is -0.22.

In the case of `c1ccc(-c2nnc(C3CCNCC3)s2)cc1`, the “% Inhibition” value is -11% and the Z score is reported as 1.51.

As for `Cc1ccc(C(=O)N2CCc3c(c4ccccc4n3Cc3ccccc3)C2)cc1`, the “% Inhibition” value is reported as -4% and the Z score is given as 0.48.

On to `Cc1[nH]c(=O)[nH]c(=O)c1CN1CCO[C@@H](CCCc2ccccc2)C1`, for which the “% Inhibition” value is 4% and the Z score was -0.86.

For the compound `COCCCn1c(=O)c2ccccc2n(CC(=O)N2CCN(c3ccccc3F)CC2)c1=O`, the “% Inhibition” value was found to be 5% and the Z score was -0.76.

Consider `Cc1cnc(CCNC(=O)C2CCC(=O)C(C)C2)nc1` (stereo unspecified), for which the “% Inhibition” value is -6% and the Z score is 0.98.

Turning to `COc1ccccc1NC(=O)Nc1cc(C)c2nc(NS(=O)(=O)c3ccc(C)cc3)sc2c1`, the “% Inhibition” value is reported as -13% and the Z score is on record as 2.06.

On to `Cc1c(C(=O)N2CCC3(CC2)COC(=O)O3)n(C)c2ccc(F)cc12`, for which the “% Inhibition” value is -14% and the Z score was determined as 1.38.

With `CC(=O)Nc1ccc(OC2CCCCC2O)cc1` (stereo unspecified), the “% Inhibition” value is -12% and the Z score was 1.2.

With `CC[C@@H](C(=O)N1CCCN(c2ccc(NC(=O)c3ccc(C)cc3)cc2C(=O)N2CCCCC2)CC1)c1ccccc1`, the “% Inhibition” value is -16% and the Z score worked out at 1.89.

As to `CC(=O)N[C@@H]1CC[C@H]2CCOc3ccccc3C(=O)N3CCN(Cc4cccnc4)C[C@H]3C(=O)NC[C@H]1O2`, the “% Inhibition” value is reported as -2% and the Z score is listed as 0.38.

Consider `OCC[C@H]1CN(Cc2nc3c(s2)CCCC3)CCN1Cc1ccsc1`, for which the “% Inhibition” value is -2% and the Z score was 0.37.

Turning to `CC(C)(CO)CNC(=O)c1cn(Cc2cccc3ccccc23)nn1`, the “% Inhibition” value is recorded as -10% and the Z score was 1.32.

`COc1cc(CN2CCC(N(c3ccc(OC)c(OC)c3)S(=O)(=O)c3ccc(F)cc3)CC2)cc(OC)c1`: the “% Inhibition” value is -2% and the Z score stood at 0.24.

Turning to `O=C(NCc1cccnc1)c1nn[nH]c1Nc1ccccc1F`, the “% Inhibition” value stood at 2% and the Z score is recorded as -0.32.

Turning to `CC1CCC(C)N1C(=O)C(=O)Nc1cncc(Br)c1` (stereo unspecified), the “% Inhibition” value was -12% and the Z score stood at 1.37.

Take `CC1CCN(Cc2ccc(-c3ncnn3C(C)(C)C)o2)CC1`: the “% Inhibition” value is -6% and the Z score is reported as 1.14.
